The record followed here is PubChem BioAssay AID488969 (Vanderbilt High Throughput Screening Facility, 2010).

Structures are written as SMILES. The full ranking holds about 110,000 compounds; the median of “z-score” is about -0.1, and the highest 2% start at about 2. Some of the results follow. The source made the active and inactive calls.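 How the source made its calls: active means z-score in the third read window above 3 or below -3; inactive means the rest.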

The target of the assay is Metabotropic glutamate receptor 8 (Rattus norvegicus) (UniProt P70579). Kind of assay: mGluR8 Gi/Go-coupled signaling modulation – cell-based, rat, thallium flux, HTS, primary screen (AID 488969). The note with it: HEK293 rat mGluR8, GIRK (G protein-gated inwardly rectifying potassium channel) thallium flux, FluoZin2; at 10 µM; stronger effect = higher value; submaximal glutamate (EC20) added with thallium.
Chain of UniProt P70579 (P70579 whole entry, looked up): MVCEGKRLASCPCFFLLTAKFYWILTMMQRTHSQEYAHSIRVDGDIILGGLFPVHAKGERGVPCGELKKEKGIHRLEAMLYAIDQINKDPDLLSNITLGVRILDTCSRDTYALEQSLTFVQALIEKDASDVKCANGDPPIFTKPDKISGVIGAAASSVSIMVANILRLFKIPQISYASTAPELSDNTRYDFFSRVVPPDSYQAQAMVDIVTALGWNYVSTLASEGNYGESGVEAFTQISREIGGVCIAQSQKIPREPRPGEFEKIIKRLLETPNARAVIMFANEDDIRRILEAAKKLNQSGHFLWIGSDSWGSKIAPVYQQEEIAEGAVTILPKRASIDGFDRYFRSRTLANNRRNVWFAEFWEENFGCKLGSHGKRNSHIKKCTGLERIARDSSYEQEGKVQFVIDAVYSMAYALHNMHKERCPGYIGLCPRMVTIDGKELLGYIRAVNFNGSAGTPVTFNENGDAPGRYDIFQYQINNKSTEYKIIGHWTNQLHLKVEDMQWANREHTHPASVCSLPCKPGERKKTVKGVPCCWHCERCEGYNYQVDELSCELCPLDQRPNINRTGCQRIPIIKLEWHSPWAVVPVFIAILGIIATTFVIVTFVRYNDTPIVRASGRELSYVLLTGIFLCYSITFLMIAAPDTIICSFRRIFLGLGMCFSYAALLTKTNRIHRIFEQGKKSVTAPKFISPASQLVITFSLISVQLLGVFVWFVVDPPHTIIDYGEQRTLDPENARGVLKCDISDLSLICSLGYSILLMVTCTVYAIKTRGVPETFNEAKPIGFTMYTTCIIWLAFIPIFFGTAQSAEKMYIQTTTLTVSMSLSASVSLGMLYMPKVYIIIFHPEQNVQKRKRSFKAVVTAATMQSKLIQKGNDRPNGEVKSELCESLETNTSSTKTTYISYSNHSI
Molecule `Cc1cc(NC(=O)C(C)Oc2ccc(Cl)cc2Cl)n(-c2ccccc2)n1` (centres undefined) gave a z-score of -0.237.
As for `CCOC(=O)c1[nH]c(C)c(C(=O)NC2CCN(C(=O)OCC)CC2)c1C`, the figure is 0.525.
Take `O=C(Cn1cnc([N+](=O)[O-])n1)N/N=C/c1cccc2ccccc12`: the z-score was -0.301.
As for `CCN=C1SC(C(=O)Nc2cccc(C(=O)O)c2)CC(=O)N1CC` (centres undefined), the figure is -0.0757; as for `C/C(=C1\SC(N2CCOCC2)=NC1=O)c1ccc(C)cc1`, -0.38.
As for `O=C(Cn1nnc(-c2cccs2)n1)N1CCc2ccccc2C1`, the figure is -0.858.
Molecule `COc1ccc(C(=O)Nc2cc(C)c3c(=O)oc4ccccc4c3n2)cc1` had a z-score of 0.0183.
As for `CC(C)OC(=O)CN1C(=O)C(C)(C)Oc2ccc(C(=O)NC3CC3)cc21`, the figure is -0.304; as for `COC(=O)C1CSc2[nH]c(=O)sc2C1c1ccc(O)c(OC)c1` (centres undefined), 0.639.
As to `COc1ccc(C(=O)COC(=O)C(CCCCN2C(=O)C3C4C=CC(C4)C3C2=O)N2C(=O)C3C4C=CC(C4)C3C2=O)cc1` (centres undefined), the z-score was -0.489.
As for `O=C(CSc1n[nH]c(=O)[nH]c1=O)N/N=C/c1ccccc1O`, the figure is -0.0324; as for `CCOC(=O)c1ccc(-n2ccnc2)c(NC(=O)c2ccc(Cl)cc2)c1`, -0.385.
As for `COc1ccc(NC(=S)N2CCN(CCN=CC3=C(O)CC(c4ccccc4)CC3=O)CC2)cc1` (centres undefined), the figure is -0.517.
As for `COc1ccccc1N(CC(=O)NC1CCCC1)C(=O)c1csnn1`, the figure is -0.397.
`COc1cccc(/C=N\Nc2nncc(-c3ccccc3)n2)c1` returned a z-score of -0.183.
As for `CCOc1ccc(N(CC(=O)NC2CCCCC2)S(=O)(=O)c2c(C)noc2C)cc1`, the figure is 0.0255; as for `COc1cc(C(=O)Nc2ccc3c(c2)OCCO3)ccc1OC(C)C`, 2.41; as for `Cc1ccc(N=Nc2c(C)[nH]n(C(N)=S)c2=O)cc1C`, -0.217.
On to `Cc1csc(NC(=O)c2cc3c(s2)CCCCC3)n1`, for which the z-score was -0.158.
As for `CSc1nsc(SCC(=O)Nc2ccc(C(C)=O)cc2)n1`, the figure is -0.119; as for `COc1ccc(C(NC(=O)/C=C\c2ccco2)c2ccc(OC)c(OC)c2)cc1` (centres undefined), -0.081; as for `Cc1ccc(S(=O)(=O)N(C)CC(=O)O/N=C(\N)c2cccc([N+](=O)[O-])c2)cc1`, -0.73.
As for `COc1cccc(CNc2ccc(F)c(Cl)c2)c1O`, the figure is -0.0487; as for `CCCCN(CCCC)S(=O)(=O)c1ccc2[nH]c(=O)[nH]c2c1`, -0.144.
As for `CN(C)CCNC(=O)c1ccc(COCC(F)(F)F)cc1`, the z-score was found to be 0.425.
For the molecule `CCOc1ccccc1N1CCN(C(=O)c2cc3c(s2)CCC3)CC1`, the z-score is -2.68.
`CCN(C(=O)c1cc2cc3ccc(C)cc3nc2o1)c1ccc(OC)cc1`: the z-score was -2.68.
As for `CCOc1ccc2nc(NC(=O)CS(=O)(=O)c3ccccc3)sc2c1`, the figure is 0.564; as for `Cc1ccccc1OCC(=O)N/N=C/c1cccc(Oc2ccc([N+](=O)[O-])cc2[N+](=O)[O-])c1`, -0.266; as for `CC(C)(C)NCc1cc(Br)ccc1OCc1cccs1`, 0.119.
As for `O=C(OCc1cnc(Cl)s1)c1ccc(Cl)cc1`, the figure is -0.0946; as for `COC(=O)C(CC(=O)c1ccc(Br)cc1)n1ccnc1` (centres undefined), -0.851.
As for `CCSC1=C(C#N)C(c2cccc(Br)c2)CC(=O)N1` (centres undefined), the figure is -0.439.
As for `O=C(NC1CCCCC1)C(c1ccccn1)N(C(=O)Cc1cccs1)c1ccc(Cl)cc1` (centres undefined), the z-score is -0.584.
As for `Cc1noc(C)c1COc1cccc(C(=O)N2CCN(C/C=C/c3ccccc3)CC2)c1`, the figure is -0.606.
In turn, `CC(=O)c1c(CC(=O)O)[nH]n(-c2nc3ccccc3s2)c1=O` returned a z-score of -0.159.
As for `COc1ccc(C2=NN(C(=O)/C=C/c3ccccc3)C(c3ccccc3)C2)c(OC(C)=O)c1` (centres undefined), the figure is -0.159; as for `CCCC(=O)NC(Nc1cc(C(F)(F)F)ccc1Cl)C(Cl)(Cl)Cl` (centres undefined), -0.349; as for `O=C(NNc1nc(-c2ccc(Cl)cc2)cs1)c1ccco1`, -0.514.
As for `CCN1CCN(C(=O)CN(C)S(=O)(=O)c2ccc(Cl)cc2)CC1`, the figure is 0.218; as for `Cc1cc[n+](-c2nc3ccccc3nc2C(=C=[N-])C#N)cc1`, -0.186; as for `CCCN1C(=O)/C(=C/c2nc3ccccc3c(=O)[nH]2)c2ccccc21`, -1.54.
As for `Cc1csc(=O)n1CCC(=O)O`, the figure is 0.291.
Regarding `C#CCOC(=O)C(NC(=O)c1ccccc1)=C1CCCCC1`, the z-score was -0.603.
As for `CCCC(=O)Nc1c(-c2ccc(OC)cc2)c(=O)c2ccccc2n1C`, the figure is -0.253; as for `O=C(N/N=C/c1ccc(O)cc1)c1cccc(C(F)(F)F)c1`, -0.162.
As for `O=C(CC(Nc1ccc(F)cc1)C(=O)OCC(=O)c1cccs1)c1ccccc1` (centres undefined), the figure is -0.226; as for `COC(=O)C(C)N(C(=O)c1cccc(Cl)c1)c1c(C)cccc1C` (centres undefined), active: -4.14; as for `O=C(NCc1ccc2c(c1)OCO2)c1ccc2c(c1)OCCO2`, 0.0302.
As for `CCn1cc(CN(C)S(=O)(=O)c2ccc3ccccc3c2)c(C)n1`, the figure is -0.504; as for `COc1ccc(S(=O)(=O)N2CCOCC2)cc1NC(=O)Cc1ccc(Cl)c(Cl)c1`, 0.29; as for `O=C(NCCc1ccccn1)c1cc(-c2ccc(Cl)cc2)nc2ccccc12`, -0.309.
With `COc1cc(OC)c(-c2nnc3n(CCc4ccccc4)c(=O)c4ccccc4n23)cc1OC`, the z-score turned out to be 0.147.
As for `Cc1ccc(Cl)cc1NC(=O)C1CCCN(S(=O)(=O)c2c(C)noc2C)C1` (centres undefined), the figure is 0.0669; as for `COc1ccccc1N1CCN(C(=O)C(OC(C)=O)c2ccccc2)CC1` (centres undefined), -0.11.
As for `CNC(=O)c1ccc(OCc2ccccc2)c(OC)c1`, the figure is 0.749; as for `CCCCCOP(=O)(c1ccccc1)c1ccccc1`, -0.495; as for `COc1ccc2c(CN(C)c3ccccc3)cc(=O)oc2c1`, -1.1.
`c1n[nH]c(NCc2ccc3c(c2)OCO3)n1` yielded a z-score of 0.0632.
Regarding `CC1(C)Cc2c(cnn2-c2ccccc2)C(=O)/C1=N\NC(=O)c1ccccc1O`, the z-score was -0.207.
As for `COC(=O)c1ccn(C(=O)c2ccc(Cl)cc2)n1`, the figure is 0.271.
As for `Cc1ccc(SCc2cc(-c3ccc(Cl)cc3)on2)cc1`, the figure is 0.048; as for `Cc1c(-c2ccccc2)cn2c1-c1ccc(C)n1CC2`, -0.0402; as for `O=C(NN1C(=O)/C(=C/c2cccs2)SC1=S)c1ccccc1`, -0.252.
The molecule `CC1(C)CC(=O)C2=C(C1)NC1=C(C(=O)c3ccccc31)C2c1ccccc1` (centres undefined) came in with a z-score of -0.933.
As for `COc1ccccc1NC(=O)c1cccc(NC(=O)c2ccco2)c1`, the figure is -0.669; as for `COc1ccccc1N1CCN(C(=O)c2cc(-c3ccc(Br)cc3)on2)CC1`, -0.425; as for `CCOC(=O)CC(=O)CSc1nc2c(cc1C#N)CCCCC2`, 1.09.
As for `Cc1ccc(C(=O)N/C(=C\c2cn(-c3ccccc3)nc2-c2ccccc2)C(=O)N2CCOCC2)cc1`, the figure is -0.229; as for `O=S(=O)(N/N=C\c1c(F)cccc1Cl)c1ccc(Cl)cc1`, -0.293; as for `COC(=O)Cn1c(=NC(=O)CSCC(=O)NC2CCCCC2)sc2cc(OC)ccc21`, -0.487.
`COc1cc(C2NC(=O)C(C#N)=C(S)N2c2ccc(C)cc2)ccc1OC(C)C` (centres undefined) came in with a z-score of -0.0791.
As for `C=CCn1c2ccccc2c2nnc(SC(CC)C(=O)Nc3nc(C)c(C(=O)OCC)s3)nc21` (centres undefined), the figure is -0.486; as for `CCOC(=O)C(C)(C)Sc1nc2c(cnn2-c2ccc(C)cc2)c(=O)[nH]1`, -0.769.
As for `CCOC(=O)c1c(NC(=O)CSC(=S)N2CCOCC2)sc(C)c1C`, the figure is 1.03.
As for `C=CCc1c(C)nc(SC)nc1Nc1ccc(C(=O)O)cc1`, the figure is -0.18; as for `CCOc1cc(/C=N/NC(=O)CSc2nncn2C)ccc1OC(=O)c1ccc(Cl)cc1`, -0.206; as for `COc1ccc(N/C=C2/CCCCC2=O)cc1`, 0.241.
The molecule `CC(CO)Nc1nc(SCc2ccccc2)nc2sc3c(c12)CCC3` (centres undefined) registered a z-score of 0.687.
The molecule `O=C1Cc2cccc3cccc1c23` had a z-score of -0.0773.
`CCOc1ccc(-c2nc(C)sc2CC(=O)O)cc1` showed a z-score of 0.231.
As for `CN(Cc1cccc(F)c1)C(=O)c1ccc(S(=O)(=O)C(F)F)cc1`, the figure is 0.688; as for `Cn1nnnc1SCC(=O)c1c(N)n(C)c(=O)n(C)c1=O`, -0.119; as for `O=C(CCSc1ccccc1)NCCN1CCOCC1`, -0.737.
As for `O=C(CC1(C(F)(F)F)OCCO1)Nc1ccc2c(c1)OCO2`, the z-score was 0.815.
As for `COc1cc(/C=N/NC(=O)CCn2nnc3ccccc32)ccc1O`, the figure is -0.659; as for `O=C(Nc1cc(=O)[nH]c2ncnn12)c1ccc(Cl)cc1Cl`, 0.137; as for `CCOc1cc(/C=N/NC(=O)CN2CCCCC2)ccc1OCc1ccc(Cl)cc1`, -0.409.
As for `CCCC(=O)N(c1ccc2oc(C)c(C(C)=O)c2c1)S(=O)(=O)c1ccc(C)c([N+](=O)[O-])c1`, the figure is -0.189; as for `O=C1NCCN1C(=O)c1cccc(Cl)c1`, -0.0542.
Regarding `CCCn1c(=O)c2ccccc2n2c(SCC(=O)N3CCc4ccccc4C3)nnc12`, the z-score was -2.77.
In turn, `Cc1c(NS(=O)(=O)c2ccccc2)cc(Cl)c(O)c1C` registered a z-score of 0.212.
As for `COCCCNC(=O)c1c(N)n(-c2cccc(S(N)(=O)=O)c2)c2nc3ccccc3nc12`, the figure is -0.153; as for `O=C(COC(=O)c1ccc(Br)o1)NCC1CCCO1` (centres undefined), -0.414; as for `CCCCn1c(C)csc1=Nc1cccnc1`, -0.113.
As for `CCOC(=O)c1ccccc1NC(=O)CN1C(=O)CCS(=O)(=O)c2ccccc21`, the figure is -0.24; as for `CC(=NCCCn1ccnc1)c1c(O)n(Cc2ccccc2)c(=O)[nH]c1=O`, -0.187; as for `O=C(NC1=NCCS1)NC12CC3CC(CC(C3)C1)C2`, -0.286.
Regarding `CCOC(=O)CCC(=O)OCC(=O)NC(C)C1CC2CCC1C2` (centres undefined), the z-score was -0.78.
In turn, `O=C(Nc1nc2ccc(Cl)cc2s1)c1ccco1` came in with a z-score of -0.371.
With `CC1=CC(C)(C)N(C(=O)C(C)N2C(=O)c3ccccc3C2=O)c2c(C)cc(C)cc21` (centres undefined), the z-score amounted to 0.764.
As for `COc1ccccc1-n1cnnc1SCC(=O)NCc1cccs1`, the figure is -0.439; as for `O=C(NNC(=O)c1ccc([N+](=O)[O-])cc1)c1ccncc1`, -0.096; as for `Cc1ccc(C(=O)COC(=O)CNC(=O)c2cccs2)cc1`, -0.718.
As for `COc1ccc(C2CC(C(F)(F)F)n3nc(C(=O)O)c(Cl)c3N2)cc1OC` (centres undefined), the figure is -0.686.
As for `COc1ccc(CCNC(=O)COc2ccc(-c3ccc(C#N)cc3)cc2)cc1`, the figure is -0.197; as for `CCNC(=O)/C(=C\c1ccccc1)NC(=O)/C=C/c1ccccc1`, 0.216.
Take `Cc1cc(S(=O)(=O)n2cnc3cc([N+](=O)[O-])ccc32)ccc1Cl`: the z-score was -0.268.
As for `CCN(CC)S(=O)(=O)c1ccc(N2CCOCC2)c(NC(=O)c2ccc3ccccc3c2)c1`, the figure is -0.18.
